Hit rate of the full screen: of about 110,000 compounds, about 230 (0.21%) showed an effect of 50% or more. The list shows a part of the results.
These compounds were tested against DPAP1 (Plasmodium falciparum, UniProt Q8IIJ9) (assay: primary screen, percent inhibition; read by cleavage of a fluorogenic dipeptide substrate; higher = more effect of the substance).
Sequence of DPAP1 (Q8IIJ9 whole entry, looked up): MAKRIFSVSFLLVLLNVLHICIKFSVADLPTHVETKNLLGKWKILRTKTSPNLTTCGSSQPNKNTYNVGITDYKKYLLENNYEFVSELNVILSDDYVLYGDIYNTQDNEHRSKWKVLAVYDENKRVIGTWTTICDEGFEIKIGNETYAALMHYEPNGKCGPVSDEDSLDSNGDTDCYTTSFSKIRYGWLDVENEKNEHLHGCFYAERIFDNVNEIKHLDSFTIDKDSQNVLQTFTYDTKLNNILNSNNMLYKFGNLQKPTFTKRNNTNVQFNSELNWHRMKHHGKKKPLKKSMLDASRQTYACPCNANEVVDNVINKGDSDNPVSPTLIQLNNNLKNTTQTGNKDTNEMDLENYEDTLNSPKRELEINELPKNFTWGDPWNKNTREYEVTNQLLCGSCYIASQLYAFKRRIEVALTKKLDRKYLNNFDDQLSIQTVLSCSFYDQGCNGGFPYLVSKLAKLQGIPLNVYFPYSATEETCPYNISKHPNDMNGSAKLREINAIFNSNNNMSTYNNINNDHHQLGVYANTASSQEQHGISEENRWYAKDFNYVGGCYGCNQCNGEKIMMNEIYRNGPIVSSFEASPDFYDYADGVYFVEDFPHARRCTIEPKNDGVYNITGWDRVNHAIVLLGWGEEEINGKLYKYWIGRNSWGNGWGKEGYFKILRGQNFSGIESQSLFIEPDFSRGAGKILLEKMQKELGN
Design: species or system P. falciparum D10 trophozoite lysates; single well
In the case of `Cc1cc2c(c(SCC(N)=O)n1)C(=O)OC2`, the “% Inhibition @ 10 uM” value is reported as 0.9%.
With `O=C(Nc1nnc(COc2ccccc2)s1)c1ccc(F)cc1` the “% Inhibition @ 10 uM” value was 5.94%.
`O=C(CN1C(=O)c2cccc3cccc(c23)C1=O)NCCCN1CCOCC1` was tested, and the “% Inhibition @ 10 uM” value was 4.22%.
In the case of `Clc1ccc(CN2CCN(Cc3ccccc3)CC2)c(Cl)c1`, the “% Inhibition @ 10 uM” value is reported as -3.56%.
In the case of `Cc1cccc(C)c1NC(=O)CN1C(=O)S/C(=C/c2ccc3c(c2)n(C)c(=O)n3C)C1=O`, the “% Inhibition @ 10 uM” value is reported as -0.0938%.
`COc1cccc(C(=O)Nc2nc(-c3nnn(-c4cccc(F)c4)c3C)ns2)c1` was tested, and the “% Inhibition @ 10 uM” value was -4.94%.
In the case of `c1ccc(N2CCN(c3ccc4nncn4n3)CC2)nc1`, the “% Inhibition @ 10 uM” value is reported as -0.692%.
With `COC(=O)c1c(C)oc2cc(Br)c(OCC(=O)c3ccc(OC)cc3)cc12` the “% Inhibition @ 10 uM” value was -5.92%.
In the case of `CCNC(=O)CSc1nnc(C)c2c(C)n(-c3ccccc3)nc12`, the “% Inhibition @ 10 uM” value is reported as 2.9%.
With `CCOC(=O)c1nc(NCC(C)O)c2ccccc2n1` (centres unmarked) the “% Inhibition @ 10 uM” value was -1.81%.
For `CCN(CC)c1ccc(CN2CCOCC2)cc1`, the “% Inhibition @ 10 uM” value was -0.0494%.
`Cc1c(C=O)c2ccccc2n1CC(=O)N1CCCCCC1` was tested, and the “% Inhibition @ 10 uM” value was -0.703%.
For `C=CCN(CC=C)C(=O)CSc1nc(C)cc(COC)c1C#N`, the “% Inhibition @ 10 uM” value was -1.85%.
`CN(C(=O)/C=C/c1ccccc1Cl)C1CCCCC1` was tested, and the “% Inhibition @ 10 uM” value was -0.569%.
`CCOc1ccc(OCc2cccc(C(=O)N3CCOCC3)c2)cc1` was tested, and the “% Inhibition @ 10 uM” value was -5.85%.
In the case of `COc1ccc(S(=O)(=O)N2CCC(C(=O)N3CCCCCC3)CC2)cc1OC`, the “% Inhibition @ 10 uM” value is reported as -5.48%.
In the case of `O=C(CN1CCC2(CC1)OCCO2)c1ccc2cc[nH]c2c1`, the “% Inhibition @ 10 uM” value is reported as 3.96%.
`COCCNCc1c(C(=O)O)c(C)n(Cc2ccccc2F)c1C` was tested, and the “% Inhibition @ 10 uM” value was -1.92%.
For `Cc1ccc2c(c1)-c1c(cnn1CC(=O)Nc1ncccc1C)CO2`, the “% Inhibition @ 10 uM” value was -7.13%.
`O=C(Nc1nc(-c2ccccc2)cs1)c1cc2ccccc2oc1=O` was tested, and the “% Inhibition @ 10 uM” value was 0.219%.
`CCCC(=O)NC(C)Cc1c[nH]c2ccccc12` (centres unmarked) was tested, and the “% Inhibition @ 10 uM” value was 9.65%.
With `Cc1c(C(=O)N2CC(C)CC(C)C2)oc2ccc(S(=O)(=O)N3CCC4(CC3)OCCO4)cc12` (centres unmarked) the “% Inhibition @ 10 uM” value was 11.5%.
For `Cn1c(=O)c2c(-c3ccccc3Cl)n(Cc3ccccc3)cc2n(C)c1=O`, the “% Inhibition @ 10 uM” value was -3.12%.
For `Cc1ccc(CCn2c(C)c(CC#N)c3ccccc32)cn1`, the “% Inhibition @ 10 uM” value was -0.744%.
In the case of `Cc1cc(C)c2c(n1)nn1c(C)c(CCC(=O)NCc3cccnc3)c(C)nc21`, the “% Inhibition @ 10 uM” value is reported as -6.33%.
`CC(C)(C)c1ccc(C2=NC3(CCN(C(=O)c4ccc(F)cc4)CC3)NC2=O)cc1` was tested, and the “% Inhibition @ 10 uM” value was -2.98%.
With `CCC(C)C(NC(=O)C1CCC(C)CC1)C(=O)NCCCN1CCCCC1CC` (centres unmarked) the “% Inhibition @ 10 uM” value was 2.64%.
With `CCOC(=O)C1=C(c2ccccc2)Nc2ncnn2C1c1cccc(O)c1` (centres unmarked) the “% Inhibition @ 10 uM” value was 3.8%.
With `CCCN1C(=O)S/C(=C\c2ccc(Cl)cc2)C1=O` the “% Inhibition @ 10 uM” value was -2.37%.
For `Cc1ccc2nc(NCc3ccco3)c(/C=C3\SC(=S)NC3=O)c(=O)n2c1`, the “% Inhibition @ 10 uM” value was -3.14%.
`Cc1c(C(c2ccc(-c3ccc(Br)cc3)o2)c2c(C)n(C)n(-c3ccccc3)c2=O)c(=O)n(-c2ccccc2)n1C` was tested, and the “% Inhibition @ 10 uM” value was 0.215%.
In the case of `Cn1cc(Br)c(C(=O)N2CCc3ccccc32)n1`, the “% Inhibition @ 10 uM” value is reported as -0.864%.
`Cc1[nH]c2ccccc2c1CN1CCc2ccccc2C1` was tested, and the “% Inhibition @ 10 uM” value was -0.127%.
For `O=C1CC(c2ccccc2C(F)(F)F)C2=C(CC(c3ccccc3Cl)CC2=O)N1` (centres unmarked), the “% Inhibition @ 10 uM” value was 4.23%.
With `O=C(O)Cn1cnc2scc(-c3ccc(Br)cc3)c2c1=O` the “% Inhibition @ 10 uM” value was -7.3%.
`CCOC(=O)c1c(C)[nH]c(C)c1S(=O)(=O)NC(C)CCc1ccccc1` (centres unmarked) was tested, and the “% Inhibition @ 10 uM” value was -4.21%.
For `CC(C)CC(=O)NC1(C(F)(F)F)C(=O)Nc2c1c(=O)n(C)c(=O)n2C` (centres unmarked), the “% Inhibition @ 10 uM” value was 9.28%.
With `Cc1ccc2oc(C(=O)Nc3nnc(C)s3)cc(=O)c2c1` the “% Inhibition @ 10 uM” value was 1.9%.
With `CN(CCc1ccccn1)Cc1ccc(F)cc1` the “% Inhibition @ 10 uM” value was 1.29%.
In the case of `COc1ccccc1C(=O)Nc1cccc(SC)c1`, the “% Inhibition @ 10 uM” value is reported as 1.43%.
For `N#CC1(NC(=O)[C@@H]2CCCC[C@@H]2CSc2ccc(F)cc2)CC1`, the “% Inhibition @ 10 uM” value was 1.7%.
`COc1cc(C2=NOC(C(=O)NC(C)c3ccccc3)C2)cc(OC)c1OC` (centres unmarked) was tested, and the “% Inhibition @ 10 uM” value was 4.41%.
`CCCN(CCO)Cc1ccc(C(C)C)cc1` was tested, and the “% Inhibition @ 10 uM” value was -9.33%.
With `CO/C(O)=C1\C(C)=NC2=C(C(=O)CCC2)C1c1cccc(Cl)c1` (centres unmarked) the “% Inhibition @ 10 uM” value was -1.82%.
In the case of `CSc1cccc(-n2nnc(-c3nsc(NC(=O)c4cccc(Cl)c4)n3)c2C)c1`, the “% Inhibition @ 10 uM” value is reported as 0.399%.
`COc1ccccc1-c1nnc2sc(COc3cccc(C)c3)nn12` was tested, and the “% Inhibition @ 10 uM” value was -0.45%.
For `O=C(NCCN1CCOCC1)c1cc(Sc2ccccc2Cl)nc2ccccc12`, the “% Inhibition @ 10 uM” value was 10.3%.
In the case of `Cc1nc(O)c2c(n1)OC(N)=C(C#N)C2c1ccc(Cl)cc1Cl` (centres unmarked), the “% Inhibition @ 10 uM” value is reported as -0.631%.
For `COc1cc(NC(=O)CCc2ccccc2)nc(OC)n1`, the “% Inhibition @ 10 uM” value was -1.03%.
`O=C(Nc1ccc(O)cc1)C1Cc2ccccc2CN1S(=O)(=O)c1cccs1` (centres unmarked) was tested, and the “% Inhibition @ 10 uM” value was 3.17%.
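Also: 30 min substrate incubation versus DMSO and 10 µM JCP410 controls.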
